In brackets after ≈: the same amount, converted by molar mass.
What was measured:
[1] = test system: drug sensitive (NF54) strain of Pf; assay: In vitro antiplasmodium assay, [3H]-hypoxanthine incorporation, NF54; type: cell-based; conditions: Plasmodium falciparum, NF54, read-out: PfIC50 NF54, sensitive NF54 strain; mean n ≥ 2
Experimental: All target compounds were evaluated for their antiplasmodium activity against the drug sensitive (NF54) strain of Pf and for turbidimetric kinetic solubility.
Aqueous Solubility. Solubility was measured from amorphous solid forms of the compounds using the turbidimetric method. Following the dissolution of test compound in DMSO to make a 10 mM stock solution, a pre-dilution plate was prepared by taking from each stock solution and serially diluting in triplicate to yield concentrations from 0.25 mM to 10.0 mM on a 96 well plate. From each pre-dilution solution, secondary dilutions of the compounds in both DMSO and 0.01M pH 7.4 PBS were prepared in triplicate on a second 96-well plate. Wells in columns 1-6 would contain […]
(§1) nominal concentrations as those in DMSO. The final volume of solvent in each assay plate was 200 µl, prepared by pipetting 4 µl each of solution from the pre-dilution plate to the corresponding well into both DMSO and PBS (both 196 µL). This ensures that the final concentration of DMSO in the […]
(§2) Similarly, a second secondary plate containing
(§3) Different concentrations in DMSO were prepared as controls to determine false turbidimetric absorbance readings arising from the compounds in solution absorbing incident radiation at the test wavelength. Following preparation, the assay plate was covered and left to equilibrate for 2 h at 25 °C. Afterwards, UV-vis absorbance readings from the plate were measured at 620 nm using a SpectraMax 340PC384 microplate reader. Plots of corrected absorbance against compound concentration were computed for a graphical representation of the data using MS Excel. Reserpine and hydrocortisone were used as positive and negative controls, respectively.
(§4) In vitro Antiplasmodium Assay. The compounds were tested using the modified [3H]-hypoxanthine incorporation assay, as previously reported.1
(§5) In vitro Cytotoxicity Assay. Compounds were screened against Chinese Hamster Ovarian (CHO) mammalian cell lines, using the 3-(4,5-dimethylthiazol-2-yl)-2,5-diphenyltetrazoliumbromide […]
(§6) It was prepared to 2 mg/ml in distilled water, while the stock solutions of test compounds were prepared to 20 mg/ml in DMSO (100%), […]
(§7) lowest being 0.001 µg/ml. […]
(§8) of cell suspension in each well and developed afterward by adding 25 µl of sterile MTT (Thermo

[2] = test system: immature-stage gametocytes (PfiGc), NF54-PfS16-GFP-Luc; assay: Antigametocytic luciferase reporter assay, immature/early stage; conditions: Plasmodium falciparum; for inhibition at 1 µM / inhibition at 5 µM: NF54, 48 h; for inhibition at 1 µM: read-out: Early gametocytes (EG) % activity, 1.0 µM; for inhibition at 5 µM: read-out: Early gametocytes (EG) % activity, 5.0 µM; for IC50: NF54, read-out: gametocytes IC50, immature-stage (PfiGc / PfEG)
physchem [3] = conditions: pH 7.4
physchem [4] = conditions: for solubility: pH 7.4, Sol. (solubility)
Experimental: Aqueous Solubility. Solubility was measured from amorphous solid forms of the compounds using the turbidimetric method. Following the dissolution of test compound in DMSO to make a 10 mM stock solution, a pre-dilution plate was prepared by taking from each stock solution and serially […]
pre-dilution solution, secondary dilutions of the compounds in both DMSO and 0.01M pH 7.4 PBS were prepared in triplicate on a second 96-well plate. Wells in columns 1-6 would contain […]
as §1, §2, §3, §4, §5, §6, §7, §8

in vitro [5] = conditions: mouse, pH 7.4
in vitro [6] = conditions: human, pH 7.4
[7] = test system: late-stage gametocytes (PfLGc), NF54-PfS16-GFP-Luc; assay: Antigametocytic luciferase reporter assay, late stage; conditions: Plasmodium falciparum; for inhibition at 1 µM / inhibition at 5 µM: NF54, 48 h; for inhibition at 1 µM: read-out: Late gametocytes (LG) % activity, 1.0 µM; for inhibition at 5 µM: read-out: Late gametocytes (LG) % activity, 5.0 µM; for IC50: NF54, read-out: gametocytes IC50, late-stage (PfLGc / PfLG)
Excerpt: In vitro Antigametocytic Activity Assay. Gametocytes were produced as per the method reported by Reader and co-workers.3 The luciferase reporter assay was used to enable accurate, reliable and quantifiable investigations of the stage-specific action of gametocytocidal compounds for the early and late gametocyte marker cell line NF54-PfS16-GFP-Luc.
(representing >90% of either early stage II/III or mature/late stage IV/V gametocytes, respectively). […]
h drug pressure in a gas chamber (90% N 2, 5% O 2, and 5% CO 2) at 37 °C. Luciferase activity was determined in 30 µl parasite lysates by adding 30 µl luciferin substrate (Promega Luciferase Assay System) at room temperature and detection of resultant bioluminescence at an integration constant of 10s with the GloMax® Explorer Detection System with Instinct® Software. […]
µM) and internal project specific controls were included as controls. The dual point screens were performed as technical triplicates for a single biological assay.

in vivo = conditions: male, Balb/c, mouse
[8] = test system: PfK1 multidrug resistant strain; assay: microbe, parasite or virus in culture; type: cell-based; conditions: Plasmodium falciparum, K1, read-out: PfIC50 K1
[9] = test system: P. berghei (Pb)-infected HepG2 cell; assay: microbe, parasite or virus in culture; conditions: Plasmodium berghei, HepG2, read-out: liver-stage PbHepG2 IC50

SMILES | IC50 [1] | inhibition at 1 µM [2] | inhibition at 5 µM [2] | IC50 [2] | logD (physchem [3]) | solubility (physchem [4]) | microsomal CLint at 0.1 µM (in vitro [5]) | inhibition at 1 µM [7] | inhibition at 5 µM [7] | Vd at 24 h (in vivo; iv, 3 mg/kg) | half-life at 24 h (in vivo; iv, 3 mg/kg) | Tmax at 24 h (in vivo; po, 10 mg/kg) | bioavailability at 24 h (in vivo; po, 10 mg/kg) | half-life at 24 h (in vivo; po, 10 mg/kg) | IC50 [8] | microsomal CLint at 0.1 µM (in vitro [5]; liver microsomes) | remaining at 0.5 h, 0.1 µM (in vitro [5]; liver microsomes) | microsomal CLint at 0.1 µM (in vitro [6]; pooled liver microsomes) | remaining at 0.5 h, 0.1 µM (in vitro [6]; pooled liver microsomes) | IC50 [7] | other results
FC(F)(F)c1nc(-c2ccc(CCN3CCC(Nc4nc5ncccc5[nH]4)CC3)cc2)no1 [Compound 9] | 0.244 µM | 0.5% | 1.6 ± 2.7% | 8.32 µM | 0.24 | 160 µM (≈ 73.2 µg/mL) | < 11.6 µL/min/mg | 6 ± 10.4% | 0% | – | – | – | – | – | – | – | – | – | – | – | remaining at 0.5 h, 0.1 µM (in vitro [5]; microsomes): 99.1%; remaining at 0.5 h, 0.1 µM (in vitro [6]; microsomes): 96.9%; microsomal CLint at 0.1 µM (in vitro [6]): < 11.6 µL/min/mg
Cc1ccc2[nH]c(NC3CCN(CCc4ccc(-c5noc(C(F)(F)F)n5)cc4)CC3)nc2n1 [Compound 10] | 0.054 µM | 39.1% | 66.5 ± 4.7% | 1.62 µM | – | 120 µM (≈ 56.6 µg/mL) | – | 1.1 ± 1.8% | 56.2 ± 7.7% | 43.6 L/kg | 3.1 h | 0.5 h | 65.2% | 3.8 h | 0.082 µM | < 11.6 µL/min/mg | 98.3% | < 11.6 µL/min/mg | 96.6% | 4.62 µM | –
FC(F)(F)c1nc(-c2ccc(CCN3CCC(Nc4nc5cnccc5[nH]4)CC3)cc2)no1 [Compound 11] | 0.017 µM | 40.6 ± 0.2% | 85.8 ± 1.4% | 1.24 µM | -0.82 | 150 µM (≈ 68.6 µg/mL) | < 11 µL/min/mg | 30.9 ± 5% | 83 ± 1.7% | 36.1 L/kg | 6.3 h | 0.7 h | 14.9% | 4.8 h | 0.033 µM | < 11.6 µL/min/mg | 97.8% | < 11.6 µL/min/mg | 98.9% | 1.39 µM | Cmax at 24 h (in vivo; po, 10 mg/kg): 100 nM; Sol. (solubility) (physchem [4]; pH 7.4): 160 µM; IC50 [9]: 2.3 ± 0.4 µM
FC(F)(F)c1nc(-c2ccc(CCN3CCC(Nc4nc5cnc(Cl)cc5[nH]4)CC3)cc2)no1 [Compound 12] | 0.112 µM | 3.4 ± 2.6% | 23.4 ± 4.6% | 5.85 µM | – | 80 µM (≈ 39.4 µg/mL) | – | 31.1 ± 3.5% | 66.5 ± 2% | – | – | – | – | – | 0.384 µM | < 11.6 µL/min/mg | 96.8% | < 11.6 µL/min/mg | 98.5% | 1.88 µM | –
FC(F)(F)c1nc(-c2ccc(CCN3CCC(Nc4nc5ccccc5[nH]4)C(F)(F)C3)cc2)no1 (stereo not shown) [Compound 15] | – | – | – | – | – | 80 µM (≈ 39.4 µg/mL) | – | – | – | – | – | – | – | – | – | – | – | – | – | – | –
